From the antibiotic and cytotoxicity screens of Wong et al. (2023) come the findings set out here.

One assay concerns HSkMC. As to the kind of experiment: cytotoxicity call (relative viability < 0.9). As to conditions: 10 µM.
Another assay relates to S. aureus RN4220. The assay can be described thus: growth inhibition call (relative growth <= 0.2). As to conditions: 50 µM.

Molecules are shown by their SMILES. The list shows a part of the results.

As for `C[C@H]1CN([C@@H](C)CO)C(=O)c2cccc(NS(C)(=O)=O)c2O[C@H]1CN(C)S(=O)(=O)c1cccs1`, the cytotoxicity call in the assay with HSkMC was “inactive”. Further, the growth inhibition call in the assay with S. aureus RN4220 was “inactive”.
Turning to `Cc1ccc(S(=O)(=O)N(C)C[C@@H]2OCCCC[C@@H](C)Oc3ccc(NC(=O)NC4CCCCC4)cc3C(=O)N([C@H](C)CO)C[C@@H]2C)cc1`, in the assay on HSkMC, the cytotoxicity call was “inactive”. Moreover, the growth inhibition call in the assay with S. aureus RN4220 is “inactive”.
As for `C[C@@H](N)CCc1ccc(Br)cc1`, the cytotoxicity call in the assay on HSkMC is “inactive”. Also, in the assay with S. aureus RN4220, the growth inhibition call was “inactive”.
In the case of `C[C@H](N)C(=O)N[C@@]1(C(=O)O)C[C@@H](Sc2nnc[nH]2)[C@H]2[C@H](C(=O)O)[C@H]21`, the cytotoxicity call with HSkMC is “inactive”. In the assay with S. aureus RN4220, the growth inhibition call was “inactive”.
`COc1ccc2c3c(n(c2c1)C)[C@H](CO)N(C[C@]13CN(CC2CCOCC2)C1)C(=O)c1ccc(cc1)F`: the cytotoxicity call with HSkMC was “inactive”. The growth inhibition call with S. aureus RN4220 was “inactive”.
As for `CO[C@@H]1CN(C)C(=O)c2ccc(NC(=O)c3ccc(F)cc3)cc2OC[C@H](C)N(C(=O)CN(C)C)C[C@@H]1C`, the cytotoxicity call with HSkMC was “inactive”. For the same compound, in the assay with S. aureus RN4220, the growth inhibition call is “inactive”.
For the compound `NNC(=S)NCc1ccc(F)cc1`, in the assay with HSkMC, the cytotoxicity call is “inactive”. Also, the growth inhibition call in the assay on S. aureus RN4220 was “inactive”.
For `CC(=O)N1[C@@H]2c3cccc(=O)n3C[C@H]1[C@H](CO)[C@H]2C(=O)N1CCc2ccccc2C1`, in the assay on HSkMC, the cytotoxicity call is “inactive”. Moreover, the growth inhibition call in the assay on S. aureus RN4220 is “inactive”.
Regarding `O=C(C[C@H]1CC[C@H]2[C@@H](COC[C@H](O)CN2S(=O)(=O)c2ccc(Cl)cc2)O1)N[C@@H]1CCN(Cc2ccccc2)C1`, in the assay with HSkMC, the cytotoxicity call is “inactive”. In the assay with S. aureus RN4220, the growth inhibition call was “inactive”.
As to `C[C@H]1CCCCO[C@H](CN(C)Cc2ccccc2)[C@@H](C)CN([C@@H](C)CO)C(=O)c2cc(NS(=O)(=O)c3ccc(Cl)cc3)ccc2O1`, the cytotoxicity call in the assay on HSkMC was “inactive”. Moreover, the growth inhibition call in the assay with S. aureus RN4220 is “inactive”.
As to `Cc1ccc(S(=O)(=O)Nc2ccc3c(c2)C(=O)N([C@@H](C)CO)C[C@H](C)[C@H](CN(C)C(=O)Nc2cccc4ccccc24)O3)cc1`, the cytotoxicity call with HSkMC is “inactive”. Moreover, in the assay with S. aureus RN4220, the growth inhibition call is “inactive”.
Consider `Cc1noc(C)c1S(=O)(=O)Nc1cccc2c1O[C@H](CN(C)C(=O)Nc1ccccc1)[C@H](C)CN([C@H](C)CO)C2=O`, for which, in the assay on HSkMC, the cytotoxicity call was “inactive”. Also, the growth inhibition call in the assay on S. aureus RN4220 was “inactive”.
As to `CCS(=O)(=O)Nc1ccc2c(c1)C(=O)N(C)[C@@H]1CC[C@H](CC(=O)N[C@H]3CCN(Cc4ccccc4)C3)O[C@H]1CO2`, the cytotoxicity call with HSkMC is “inactive”. In the assay with S. aureus RN4220, the growth inhibition call is “inactive”.
As to `O=C(O)C[C@H]1CC[C@@H]2[C@H](COC[C@@H](O)CN2S(=O)(=O)c2ccc(F)cc2)O1`, the cytotoxicity call in the assay with HSkMC is “inactive”. Also, the growth inhibition call in the assay on S. aureus RN4220 is “inactive”.
Take `COc1ccc(S(=O)(=O)N2C[C@@H](O)COC[C@H]3O[C@H](CC(=O)N[C@@H]4CCN(Cc5ccccc5)C4)CC[C@@H]32)cc1`: the cytotoxicity call in the assay on HSkMC was “inactive”. Further, the growth inhibition call in the assay with S. aureus RN4220 is “inactive”.
For the compound `C[C@H](CO)N1C[C@H](C)[C@@H](CN(C)Cc2cccc3c2OCCCO3)OCc2cn(nn2)CCCC1=O`, in the assay with HSkMC, the cytotoxicity call was “inactive”. In addition, in the assay with S. aureus RN4220, the growth inhibition call is “inactive”.
Regarding `NNC(=S)NCc1cccs1`, the cytotoxicity call with HSkMC is “inactive”. Moreover, the growth inhibition call in the assay on S. aureus RN4220 was “inactive”.
With `COc1ccc(NC(=O)Nc2ccc3c(c2)C(=O)N([C@@H](C)CO)C[C@H](C)[C@@H](CN(C)C(=O)Nc2ccccc2)OCCCC[C@H](C)O3)cc1`, the cytotoxicity call in the assay on HSkMC was “inactive”. Further, in the assay on S. aureus RN4220, the growth inhibition call was “inactive”.
Consider `CN1CCN(C(=O)C[C@@H]2CC[C@H]3[C@@H](COC[C@H](O)CN3C(=O)C3CCOCC3)O2)CC1`, for which the cytotoxicity call in the assay on HSkMC is “inactive”. Further, the growth inhibition call in the assay on S. aureus RN4220 is “inactive”.
Regarding `O=C(CCCCCCC(=O)Nc1ccc([C@H]2O[C@H](CSc3nc(-c4ccccc4)c(-c4ccccc4)o3)C[C@H](c3ccc(NC(=O)CCCCCCC(=O)NO)cc3)O2)cc1)NO`, the cytotoxicity call with HSkMC is “inactive”. Besides, the growth inhibition call in the assay on S. aureus RN4220 was “inactive”.
For the compound `C[C@H](C(=O)N(C)C[C@@H]1OCc2ccccc2-c2c(n(C)c3ccccc23)C(=O)N([C@@H](C)CO)C[C@@H]1C)c1ccccc1`, in the assay on HSkMC, the cytotoxicity call is “inactive”. For the same compound, the growth inhibition call with S. aureus RN4220 is “inactive”.
With `COc1ccc(S(=O)(=O)Nc2ccc3c(c2)C(=O)N(C)C[C@@H](OC)[C@H](C)CN(C(=O)NC(C)C)[C@H](C)CO3)cc1`, the cytotoxicity call with HSkMC is “inactive”. The growth inhibition call in the assay with S. aureus RN4220 was “inactive”.
Regarding `COc1cccc(S(=O)(=O)Nc2ccc3c(c2)[C@H]2C[C@H](CC(=O)NC4CCCCC4)O[C@@H](CO)[C@H]2O3)c1`, in the assay with HSkMC, the cytotoxicity call is “inactive”. Moreover, the growth inhibition call in the assay on S. aureus RN4220 is “inactive”.
Regarding `CC(C)(C)CC(C)(C)c1cc(Cc2cc(C(C)(C)CC(C)(C)C)cc(-n3nc4ccccc4n3)c2O)c(O)c(-n2nc3ccccc3n2)c1`, the cytotoxicity call in the assay on HSkMC is “inactive”. The growth inhibition call with S. aureus RN4220 is “inactive”.
In the case of `Cc1ccc(S(=O)(=O)Nc2ccc3c(c2)CC(=O)N([C@@H](C)CO)C[C@H](C)[C@@H](CN(C)Cc2ccncc2)O3)cc1`, the cytotoxicity call with HSkMC was “inactive”. The growth inhibition call in the assay on S. aureus RN4220 is “inactive”.
Take `CC(C)CC#Cc1ccc2c(c1)O[C@@H](CN(C)Cc1cncnc1)[C@@H](C)CN([C@H](C)CO)S2(=O)=O`: the cytotoxicity call with HSkMC was “inactive”. Further, in the assay on S. aureus RN4220, the growth inhibition call was “inactive”.
`C[C@H]1CN([C@@H](C)CO)C(=O)Cc2cc(NS(=O)(=O)c3cccs3)ccc2O[C@H]1CN(C)S(C)(=O)=O`: the cytotoxicity call with HSkMC is “inactive”. For the same compound, the growth inhibition call with S. aureus RN4220 was “inactive”.
With `C[C@H]1CN([C@@H](C)CO)C(=O)c2cc(NC(=O)NC3CCCCC3)ccc2O[C@H]1CN(C)C(=O)Nc1ccc(C(F)(F)F)cc1`, the cytotoxicity call with HSkMC is “inactive”. Also, in the assay with S. aureus RN4220, the growth inhibition call is “inactive”.
As to `Cc1noc(C)c1S(=O)(=O)Nc1ccc2c(c1)C(=O)N([C@H](C)CO)C[C@@H](C)[C@@H](CN(C)Cc1ccccc1)OCCCC[C@@H](C)O2`, the cytotoxicity call in the assay on HSkMC (human skeletal muscle cells) is “inactive”. Moreover, the growth inhibition call with S. aureus RN4220 is “inactive”.
